In all, about 46,000 compounds went through this assay and about 60 (0.1%) were called active. About 3% were inconclusive and are not listed. Calls come from the whole dose curve; as a rule, active = well fitted inhibition curve with a large enough effect; inconclusive = small, poorly fitted or top-dose-only effect; inactive = no such curve, though single readings can be large or run the other way. The list shows a part of the results.
Experiment: Primary qHTS assay for Inhibitors of ovarian cancer metastasis using an organotypic tumor microenvironment (TME) model.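 For activity change, negative = inhibition: plate controls were DMSO wells for no effect and tomatine positive control wells for full effect.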 Note: nearly all actives have a fitted effect of over 65% in size.
Conditions: SKOV3ip1-GFP adhesion/invasion on 3D omental model, fluorescence; series mostly up to 45.8 µM; activity change, negative = inhibition: at the top concentration
How it was run: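 A 3D layer of primary human omental fibroblasts, mesothelial cells, fibronectin and collagen I, grown 48 hr, received SKOV3ip1-GFP cells in serum-free medium plus compounds at 0.36-46 umol/L. After 2 hr RT and 16 hr 37 C, fixed adherent GFP cells were counted; normalized to DMSO and tomatine.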

Activity change, negative = inhibition, inactive:
CCn1c(=N)c(C(=O)NCc2cccnc2)cc2c(=O)n3cc(C)ccc3nc21 41.3%, COc1ccc(-c2cc(C(=O)Nc3cc(C)ccc3O)no2)cc1OC 15%, COC(=O)c1cc2occc2n1CC(=O)Nc1cccc(SC)c1 -0.245%, O=c1n(CCCN2CCN(c3cccc(Cl)c3)CC2)nc2ccccn12 8%, Cc1c(C(=O)NCc2ccc(Cl)cc2)sc2nc3n(c(=O)c12)CCCC3 -7.76%, CCOc1ccc(CNC(=O)c2ccc(NC(=O)c3nsc4ccccc34)cc2)cc1 8.81%, CCS(=O)(=O)c1ccccc1C(=O)N(Cc1cccnc1)c1nc2cc(C)c(C)cc2s1 1.33%, CN(C(=O)CSc1nc2ccccc2n1CC(=O)NCc1ccc(F)cc1)c1ccc(F)cc1 4.53%, CCc1noc2nc(C)n(CC(=O)O)c(=O)c12 -0.659%, CCOC(=O)Cn1cc2c(c1-c1ccc(Cl)cc1)c(=O)n(C)c(=O)n2C 5.3%, CCN(CC)CCCNC(=O)c1c(C)oc2ncnc(N3CCOCC3)c12 -9.16%, CCCCN(Cc1ccccc1)S(=O)(=O)c1ccc2c(c1)CC(C)N2C(=O)CC (stereo not drawn) -11.2%, Cc1ccc(CNc2ncnc3c2c(-c2ccccc2)cn3-c2cccc(Cl)c2)cc1 1.05%, COc1ccc(-c2nc3n(n2)C(c2ccccc2F)C(C(=O)Nc2cccnc2)=C(C)N3)cc1OC (stereo not drawn) -4.51%, Cc1ccc(-c2noc(CN(C3CCCCC3)S(=O)(=O)c3ccc(Cl)cc3)n2)cc1 0.988%, c1ccc(C(c2cccs2)c2c[nH]c3ccccc23)cc1 (stereo not drawn) -8.3%, Cc1cccc(-n2c(=O)c3c(c4cc(C)ccc4n3C)n(CC(=O)Nc3ccccc3C(F)(F)F)c2=O)c1 0.314%, COc1ccc(C2CC(=O)c3c([nH]c(C(=O)OC4CCC(C)CC4)c3C)C2)cc1OC (stereo not drawn) 1.94%, Cc1ccccc1C(C(=O)NC1CCCCC1)N(C(=O)Cn1ccnc1C)c1cccc(F)c1 (stereo not drawn) 3.57%, COCCCNC(=O)c1sc2ncccc2c1-n1cccc1 -13.5%, O[C@@H](CNC[C@H](O)[C@H]1CCc2cc(F)ccc2O1)[C@@H]1CCc2cc(F)ccc2O1 -6.09%, CCc1cccc2sc(N3CCN(C(=O)C4CC4)CC3)nc12 -4.76%, Cc1ccc2cccc(NC(=O)c3cccc4ccccc34)c2n1 -4.99%, COc1ccc(NCc2ccccc2-c2nnc(-c3ccccc3)o2)cc1Cl -12.5%, Cc1cc(C)cc(C(=O)N2CC(=O)Nc3ccc(C)cc3C2c2ccccc2)c1 (stereo not drawn) -0.347%, CC(C)(C)OC(=O)N1CCC(c2c(C(=O)N3CCc4ccccc4C3)cnn2-c2ccc(Cl)cc2)CC1 -8.07%, CCS(=O)(=O)Nc1cc(-c2cn3ccc(C)cc3n2)ccc1C 1.67%, CCN1C(=O)c2cccc3c(S(=O)(=O)Nc4ccc(O)c(C(=O)O)c4)ccc1c23 15.5%, O=C(COc1ccc(Br)cc1Br)Nc1ccc(S(=O)(=O)Nc2ncccn2)cc1 8.01%, Cc1oc(-c2cccc(Cl)c2)nc1CN1CCC(C(=O)NC(C)C)CC1 -5.12%, Cc1cc(C)c(S(=O)(=O)Nc2ccc3oc(C)c(C(=O)OC(C)C)c3c2)cc1C -8.32%, Cc1ccc(CNC(=O)CCNS(=O)(=O)c2ccc3c(c2)oc(=O)n3C)cc1 -0.327%, Cc1ccc(Cl)cc1NC(=O)Cn1c(=O)cc(C)c2c(C)nn(C)c21 15.3%, CCOc1ccc(NC(=O)Cn2c(=O)n(CCc3ccccc3)c(=O)c3c4c(sc32)CCCC4)cc1 20.6%, Cc1ccc(NC(=O)CC2Oc3ccc(C)cc3NC2=O)c(C)c1 (stereo not drawn) -10.6%, Cc1ccc(-n2nc3cc(C)c(NC(=O)c4ccc(-c5ccccc5)o4)cc3n2)cc1 -0.0812%, O=C(CCn1c(=O)c2sccc2n(Cc2ccc(F)cc2)c1=O)NCc1ccc2c(c1)OCO2 -1.61%, O=C(Cn1ncc2c3ccccc3n(Cc3ccccc3)c2c1=O)NCc1cccs1 -7.26%, CCOC(=O)C1=C(CN2CCN(c3ccc(Cl)cc3)CC2)NC(=O)NC1c1ccc(OC)cc1 (stereo not drawn) -22.6%, Cc1ccc(CSc2c(C)cnc3c2c(=O)n(C)c(=O)n3C)cc1 -11.4%, CC(=O)c1ccc(NC(=O)Cn2nc(C(F)(F)F)c3c2CCC3)cc1 0.153%, CCN(CC)CCNC(=O)CCn1c(=O)c2cccn2c2cccnc21 -7.95%, CCCCNC(=O)CCC1N=C2c3ccccc3N=C(SCC(=O)NCCc3ccc(OC)c(OC)c3)N2C1=O (stereo not drawn) -7.02%, CC1=C(C(=O)Nc2ccc(C)cc2C)C(c2ccccc2)n2nc(SCC(=O)c3ccc(C)cc3)nc2N1 (stereo not drawn) -2.12%, CN1c2ccc(Cl)cc2-c2nc(SCC(=O)NCc3ccc(F)cc3)ncc2S1(=O)=O 3.29%, O=C(CSc1nc2ccsc2c(=O)n1Cc1ccc(F)cc1)NCc1ccc(Cl)cc1 9.92%, COc1ccc(NC(=O)Cn2c(=O)oc3ccccc32)cc1 23%, Oc1ccc(-c2nc(-c3ccc(F)cc3)c(-c3ccncc3)[nH]2)cc1 5.82%, CCc1ccccc1NC(=O)CCNS(=O)(=O)c1ccc2c(c1)CCCC(=O)N2 -9.46%, Cc1nn(C)c2c1c(C(F)(F)F)cc(=O)n2CC(=O)NCc1ccc(OC(C)C)cc1 -8.22%, CCC(C)c1ccc(OCC(=O)Nc2cccc3ccc(C)nc23)cc1 (stereo not drawn) 3.88%, C[C@H](NC(=O)C(C#N)=Cc1cccc(Br)n1)c1ccccc1 -24%, CCN1CCN(c2ncc3c(n2)CCN(Cc2cc(Br)cs2)C3)CC1 7.01%, Cc1c(O)nc(SCC(=O)Nc2ccc(Cl)cc2Cl)n(-c2ccc(F)cc2)c1=O 0.801%, Cc1ccc(CNS(=O)(=O)c2ccc(N3CCCCS3(=O)=O)cc2)cc1 -3.17%, Cc1cn(C)c(CC(=O)NCc2cccc(Cl)c2)c1C(=O)O 0.204%, CC(C)(C)c1ccc(S(=O)(=O)N2CCC(Oc3ccc(-n4cnnn4)cc3)CC2)cc1 -0.914%, COc1cc(Cn2c(=O)oc3ccc(C)cc32)ccc1OCCC(C)C -8.36%, COc1ccc(CCNC(=O)Cc2c(C)c3cc4c(C(C)(C)C)coc4c(C)c3oc2=O)cc1OC 4.37%, COc1ccc(Nc2oc(-c3ccc(COc4cccc(C)c4)o3)nc2C#N)cc1 -49.9%, Cn1nnnc1SCCCNCc1ccc(Cl)cc1 -2.62%, CC(C)c1ccc(C2Sc3ccccc3NC3=C2C(=O)c2ccccc23)cc1 (stereo not drawn) -2.28%, O=C(COc1ccccc1F)Nc1ccccc1C(=O)OCc1cc(=O)n2nc(C3CC3)sc2n1 -3.49%, CC1CCc2onc(C(=O)N3CCN(c4ccccc4)CC3)c2C1 (stereo not drawn) -3.78%, COc1ccc(-c2nc3c(c(SCC(=O)Nc4cccc(O)c4)n2)Cc2c(CO)cnc(C)c2O3)cc1 -4.53%, O=C(NCc1ccc(Cl)cc1)c1cc2c(s1)-c1ccccc1SC2 -27.7%, Cc1ccc(C(=O)N(Cc2ccco2)Cc2sccc2C)cc1 -1.71%, Cc1nc(N2CCOCC2)c2c(C(=O)N3CCN(c4ccccc4F)CC3)c(C)oc2n1 1.02%, Cc1ccc(CN2COc3ccc4c(C)cc(=O)oc4c3C2)cc1 -31.6%, O=C(Nc1cc(Cl)ccc1Cl)c1cc(S(=O)(=O)NCCc2ccccc2)ccc1F -0.0054%, COc1ccc(CNC(=O)c2cnc3sc(N4CCC(C)CC4)nn3c2=O)c(OC)c1 -17.8%, Cc1ccc(N2C(=O)CC(c3ccccc3F)C3=C2COC3=O)cc1Cl (stereo not drawn) 0.821%, COc1ccc(-c2c(C#N)c(SCC(=O)Nc3cccc(Cl)c3)nc(C)c2C(=O)Nc2ccccc2)cc1OC -0.601%, CCc1nnc2c(N3CCN(c4cccc(C)c4)C(C)C3)nc3ccccc3n12 (stereo not drawn) 3.74%, CCN(CC)C(=O)Cn1c(=O)n(-c2ccc(Cl)c(Cl)c2)c(=O)c2c(C)c(C(=O)N(CC)CC)sc21 -0.329%, CC1CCN(c2nc3c(S(=O)(=O)c4ccccc4)nnn3c3ccc(Cl)cc23)CC1 1.03%

outcome, inactive:
COc1ccccc1Cc1nc2ccccc2nc1SCC(=O)NCCc1ccccc1, O=C(Nc1ccc(F)c(Cl)c1)N1CCN2CCCCC2C1 (stereo not drawn), CCCCN(C(=O)c1cccc(S(=O)(=O)N2CCCCC2)c1)C1CCS(=O)(=O)C1 (stereo not drawn), Cc1cc(NC(c2nnc(-c3ccccc3)o2)c2ccccc2F)ccc1Br (stereo not drawn), CCN(CC)c1ccc(-c2nc(-c3ccncc3)no2)cc1[N+](=O)[O-], CCCCNC(=O)CSc1nc2cc3c(cc2c(=O)n1CCCC(=O)NCc1ccc2c(c1)OCO2)OCO3, CCOc1ccccc1C(=O)N(Cc1ccc(N(C)C)cc1)CC1CCCO1 (stereo not drawn), COc1cccc(Nc2nnc(-c3cc4ccc(O)cc4oc3=O)s2)c1, COc1cccc(C2CC(=O)Nc3c2c(=O)n(C)c2nc4ccccc4n32)c1OC (stereo not drawn), COc1cccc2sc(NC(=O)c3ccc4c(c3)OCCO4)nc12, CCc1nc2ccc(C(=O)N3CCN(c4ccccc4F)CC3)cc2nc1CC, Cc1ccc(Cl)cc1N1CCN(C(=O)Cn2cnc3onc(-c4ccc(F)cc4)c3c2=O)CC1, Cc1ccc2nc(-c3ccc(NC(=O)Cc4ccccc4)cc3)sc2c1, Cc1cc(Nc2ccc(Br)cc2)n2nc(-c3ccccc3C)nc2n1, COc1ccc(OC)c(-c2cc(C(=O)Nc3ccc(C)c(C)c3)no2)c1, O=C(CNC(=O)c1ccc(Cl)cc1)OCc1cc(=O)n2nc(C3CC3)sc2n1, CC(C)(C)c1ccc(CSC2=Nc3ccccc3C3=NC(CC(=O)NCc4cccs4)C(=O)N23)cc1 (stereo not drawn), Cc1ccc2c(c1)cc1c(=O)n(Cc3cccc(Cl)c3)nc(C)n12, Cc1cc(C)c2c(c1)NC(=O)C2(O)c1c[nH]c2ccccc12 (stereo not drawn), COC(=O)c1cc(NC(=O)CCc2c(C)nc3c(c(C)nn3C(C)(C)C)c2C)cc(C(=O)OC)c1, CCc1ccc(NC(=O)C2CCN(c3nn4cc(-c5ccc(OC)cc5)nc4s3)CC2)cc1, CCc1ccccc1NC(=O)Cn1c(=O)n(Cc2ccco2)c(=O)c2ccccc21
